MIC data for 16 test systems are collected here from the supplement of paper PMC10724272.

MIC of invasive clinical C. tropicalis isolates, CLSI broth microdilution (fluconazole 0.12-256 mg/L, up to 1,024 for the azole-resistant cluster and its neighbour group; other ranges not stated); higher = less susceptible. Call: susceptible or wild type [S] / resistant or non-wild type [R] by CLSI breakpoints or cut-offs; intermediate and dose-dependent carry no call. '<=' and '>=' at the end values are inferred; the source marks only some of them. Isolates are numbered anew.

Assay in all cases: CLSI broth microdilution.
Compound in test [1]: CCC(C)n1ncn(-c2ccc(N3CCN(c4ccc(OCC5COC(Cn6cncn6)(c6ccc(Cl)cc6Cl)O5)cc4)CC3)cc2)c1=O [itraconazole]
Compound in test [2]: CCCCCOc1ccc(-c2cc(-c3ccc(C(=O)N[C@H]4C[C@@H](O)[C@@H](O)NC(=O)[C@@H]5[C@@H](O)[C@@H](C)CN5C(=O)[C@H]([C@H](O)CC(N)=O)NC(=O)[C@H]([C@H](O)[C@@H](O)c5ccc(O)c(OS(=O)(=O)O)c5)NC(=O)[C@@H]5C[C@@H](O)CN5C(=O)[C@H]([C@@H](C)O)NC4=O)cc3)no2)cc1 [micafungin]
Compound in test [3]: CCCCCOc1ccc(-c2ccc(-c3ccc(C(=O)N[C@H]4C[C@@H](O)[C@@H](O)NC(=O)[C@@H]5[C@@H](O)[C@@H](C)CN5C(=O)[C@H]([C@@H](C)O)NC(=O)[C@H]([C@H](O)[C@@H](O)c5ccc(O)cc5)NC(=O)[C@@H]5C[C@@H](O)CN5C(=O)[C@H]([C@@H](C)O)NC4=O)cc3)cc2)cc1 [anidulafungin]
Compound in test [4]: CC[C@@H]([C@H](C)O)n1ncn(-c2ccc(N3CCN(c4ccc(OC[C@@H]5CO[C@@](Cn6cncn6)(c6ccc(F)cc6F)C5)cc4)CC3)cc2)c1=O [posaconazole]
Compound in test [5]: CC[C@H](C)C[C@H](C)CCCCCCCCC(=O)N[C@H]1C[C@@H](O)[C@@H](NCCN)NC(=O)[C@@H]2[C@@H](O)CCN2C(=O)[C@H]([C@H](O)CCN)NC(=O)[C@H]([C@H](O)[C@@H](O)c2ccc(O)cc2)NC(=O)[C@@H]2C[C@@H](O)CN2C(=O)[C@H]([C@@H](C)O)NC1=O [caspofungin]
Compound in test [6]: C[C@@H](c1ncncc1F)[C@](O)(Cn1cncn1)c1ccc(F)cc1F [voriconazole]
Compound in test [7]: C[C@@H]1[C@H](O)[C@@H](C)/C=C/C=C/C=C/C=C/C=C/C=C/C=C/[C@H](O[C@@H]2O[C@H](C)[C@@H](O)[C@H](N)[C@@H]2O)C[C@@H]2O[C@](O)(C[C@@H](O)C[C@@H](O)[C@H](O)CC[C@@H](O)C[C@@H](O)CC(=O)O[C@H]1C)C[C@H](O)[C@H]2C(=O)O [amphotericin B]
Compound in test [8]: Nc1[nH]c(=O)ncc1F [flucytosine]
Compound in test [9]: OC(Cn1cncn1)(Cn1cncn1)c1ccc(F)cc1F [fluconazole]

For “Candida tropicalis isolate 393 (ERG11 copies: 2, Erg11p: no key change)”, the MIC in test [1] is 0.25 mg/L [S]; in test [2] it was 0.03 mg/L [S]; in test [3], at most 0.015 mg/L [S]; in [4], 0.25 mg/L [S]; in test [5], 0.03 mg/L [S]; in [6] it was 0.25 µg/mL. The MIC in [7] was 0.5 mg/L [S]; in test [8] it was at most 0.06 mg/L [S]; in test [9] it was 2 mg/L [S].
“Candida tropicalis isolate 368 (ERG11 copies: 8, Erg11p: Y132F, S154F (heterozygous))”: the MIC in test [1] was 1 mg/L [R]; in test [2] it was 0.06 mg/L [S]; in test [3] it was 0.12 mg/L [S]; in [4] it was 1 mg/L [R]; in test [5] it was 0.03 mg/L [S]; in [6] it was at least 8 mg/L [R]. Also, the MIC is 0.5 mg/L [S] in [7], at most 0.06 mg/L [S] in test [8] and 512 mg/L [R] in test [9].
With “Candida tropicalis isolate 383 (ERG11 copies: 2, Erg11p: no key change)”, the MIC was 0.12 mg/L [S] in [1]; 0.06 mg/L [S] in [2]; 0.25 mg/L [S] in test [3]; 0.12 mg/L [S] in test [4]; 0.03 mg/L [S] in [5]; 0.06 mg/L [S] in test [6]. Also, the MIC in test [7] was 0.5 mg/L [S]; in test [8] it was 0.12 mg/L [S]; in [9], 1 mg/L [S].
As for “Candida tropicalis isolate 411 (ERG11 copies: 2, Erg11p: no key change)”, the MIC is 0.25 mg/L [S] in test [1]; 0.03 mg/L [S] in test [2]; 0.03 mg/L [S] in test [3]; 0.25 mg/L [S] in test [4]; 0.03 mg/L [S] in test [5]; 0.25 µg/mL in test [6]. Besides, the results for the MIC in test [7], in [8] and in test [9] were 0.5 mg/L [S], at most 0.06 mg/L [S] and 4 µg/mL, respectively.
With “Candida tropicalis isolate 276 (ERG11 copies: 7, Erg11p: Y132F, S154F (heterozygous))”, the MIC in test [1] was 0.5 mg/L [S]; in test [2], 0.06 mg/L [S]; in [3], 0.25 mg/L [S]; in [4], 1 mg/L [R]; in [5], 0.06 mg/L [S]; in [6] it was at least 8 mg/L [R]. In addition, the MIC in [7] was 1 mg/L [S]; in test [8], at most 0.06 mg/L [S]; in test [9], 512 mg/L [R].
“Candida tropicalis isolate 404 (ERG11 copies: 2, Erg11p: no key change)”: the MIC in [1] came to 0.25 mg/L [S]; in test [2], 0.03 mg/L [S]; in [3] it was 0.25 mg/L [S]; in test [4] it was 0.25 mg/L [S]; in test [5], 0.12 mg/L [S]; in test [6] it was 0.25 µg/mL. Moreover, the MIC in [7] was found to be 1 mg/L [S]; in test [8] it was 0.12 mg/L [S]; in [9], 2 mg/L [S].
On to “Candida tropicalis isolate 120 (ERG11 copies: 2, Erg11p: no key change)”, for which the MIC in [1] amounted to 0.25 mg/L [S]; in [2] it was 0.03 mg/L [S]; in test [3] it was 0.03 mg/L [S]; in test [4] it was 0.25 mg/L [S]; in [5], 0.03 mg/L [S]; in test [6], 0.12 mg/L [S]. The values for the MIC in test [7], in test [8] and in test [9] were 1 mg/L [S], 0.12 mg/L [S] and 1 mg/L [S], respectively.
For the test system “Candida tropicalis isolate 323 (ERG11 copies: 2, Erg11p: no key change)”, the MIC came to 0.25 mg/L [S] in test [1]; 0.06 mg/L [S] in [2]; 0.12 mg/L [S] in [3]; 0.5 mg/L [R] in test [4]; 0.06 mg/L [S] in test [5]; 0.25 µg/mL in [6]. Further, the minimum inhibitory concentration (MIC) in [7] was 1 mg/L [S]; in [8] it was at most 0.06 mg/L [S]; in test [9], 2 mg/L [S].
“Candida tropicalis isolate 60 (ERG11 copies: 2, Erg11p: no key change)”: the MIC in test [1] was determined as 0.12 mg/L [S]; in [2], 0.015 mg/L [S]; in [3], 0.06 mg/L [S]; in [4], 0.12 mg/L [S]; in test [5], 0.06 mg/L [S]; in test [6], 0.06 mg/L [S]. Besides, the MIC in test [7] stood at 1 mg/L [S]; in test [8] it was 0.12 mg/L [S]; in test [9], 2 mg/L [S].
Take “Candida tropicalis isolate 58 (ERG11 copies: 2, Erg11p: no key change)”: the MIC in test [1] was determined as 0.5 mg/L [S]; in [2], 0.03 mg/L [S]; in test [3] it was 0.12 mg/L [S]; in test [4], 0.5 mg/L [R]; in test [5], 0.06 mg/L [S]; in test [6], 0.25 µg/mL. The values for the MIC in test [7], in test [8] and in test [9] were 0.5 mg/L [S], at most 0.06 mg/L [S] and 2 mg/L [S], respectively.
With “Candida tropicalis isolate 428 (ERG11 copies: 2, Erg11p: Y257H (homozygous))”, the MIC in test [1] was 0.5 mg/L [S]; in [2], 0.03 mg/L [S]; in [3], 0.12 mg/L [S]; in [4] it was 0.5 mg/L [R]; in test [5], 0.03 mg/L [S]; in test [6], 1 mg/L [R]. Also, the MIC in test [7] was 1 mg/L [S]; in test [8], at most 0.06 mg/L [S]; in test [9], 8 mg/L [R].
“Candida tropicalis isolate 410 (ERG11 copies: 8, Erg11p: Y132F, S154F (heterozygous))”: the MIC in test [1] was 0.5 mg/L [S]; in test [2], 0.03 mg/L [S]; in test [3], 0.25 mg/L [S]; in test [4], 1 mg/L [R]; in [5] it was 0.12 mg/L [S]; in test [6] it was at least 8 mg/L [R]. Moreover, the MIC in test [7] is 0.5 mg/L [S]; in [8], at most 0.06 mg/L [S]; in [9], 512 mg/L [R].
Consider “Candida tropicalis isolate 166 (ERG11 copies: 2, Erg11p: no key change)”, for which the MIC in test [1] was 0.25 mg/L [S]; in [2], 0.03 mg/L [S]; in test [3] it was at most 0.015 mg/L [S]; in test [4] it was 0.25 mg/L [S]; in [5], 0.03 mg/L [S]; in test [6], 0.12 mg/L [S]. Further, the MIC is 0.5 mg/L [S] in test [7], at most 0.06 mg/L [S] in [8] and 2 mg/L [S] in [9].
As for “Candida tropicalis isolate 195 (ERG11 copies: 2, Erg11p: no key change)”, the MIC in test [1] was determined as 0.12 mg/L [S]; in test [2], 0.06 mg/L [S]; in [3], 0.06 mg/L [S]; in [4] it was 0.12 mg/L [S]; in test [5] it was 0.06 mg/L [S]; in test [6] it was 0.06 mg/L [S]. Moreover, the MIC in [7] was 0.5 mg/L [S]; in test [8] it was at most 0.06 mg/L [S]; in test [9], 0.5 mg/L [S].
As for “Candida tropicalis isolate 129 (ERG11 copies: 7, Erg11p: Y132F, S154F (heterozygous))”, the MIC was 1 mg/L [R] in [1]; 0.03 mg/L [S] in [2]; 0.12 mg/L [S] in test [3]; 1 mg/L [R] in test [4]; 0.03 mg/L [S] in test [5]; above 8 mg/L [R] in test [6]. Besides, the MIC is 1 mg/L [S] in [7], at most 0.06 mg/L [S] in test [8] and 512 mg/L [R] in test [9].
Take “Candida tropicalis isolate 132 (ERG11 copies: 10, Erg11p: Y132F, S154F (heterozygous))”: the MIC in test [1] is 1 mg/L [R]; in test [2], 0.03 mg/L [S]; in test [3], 0.12 mg/L [S]; in test [4], 1 mg/L [R]; in test [5], 0.03 mg/L [S]; in test [6] it was at least 8 mg/L [R]. The values for the MIC in test [7], in test [8] and in test [9] were 1 mg/L [S], at most 0.06 mg/L [S] and 512 mg/L [R], respectively.

As usually defined, the MIC is the lowest concentration that inhibits growth of the organism.
